The values that follow come from the supplement of paper PMC7125110.

± gives the standard error. This sample is rich in variants without activity. A value given as a limit tells only on which side of the number the result lay.

B1: glmS ribozyme (parent)
chain: AUAAAAGCGCCAGAACUACAGAAAUGUAGUUGACGAGGAGGAGGUUUAUCGAAUUUUCGGCGGAUGCCUCCAAA

What all share (settings): with glucosamine-6-phosphate
Variants of B1 are the subject of data set [1]. As to the kind of experiment: self-cleavage kobs at 640 uM GlcN6P; higher = faster cleavage; RNA array. Summed up: (§1)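 Glucosamine-6-phosphate in HEPES/KCl/Mg(OAc)2 buffer, at 40 μM to 10 mM, was flowed over barcoded ribozyme variants transcribed in situ by E. coli RNA polymerase on sequenced MiSeq chips. Tracking was through a hybridised Cy3 probe at 37 °C. kobs, kcat and KM came from exponential decay fits and weighted Michaelis–Menten fits of normalised per-tile medians.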

The variants in data set [2] derive from B1. As to the kind of experiment: self-cleavage kobs at 2500 uM GlcN6P; higher = faster cleavage; RNA array. Summed up:
as §1

Variants of B1 are the subject of data set [3]. The data set is described as follows: self-cleavage kobs at 10000 uM GlcN6P; higher = faster cleavage; RNA array. Summed up: as §1
In data set [4] the parent is B1. The data set is described as follows: self-cleavage kobs at 160 uM GlcN6P; higher = faster cleavage; RNA array. Summed up: as §1

Take AUAAAAGCGCCAGAACUACAGAAAUGUAGUUGACGAGGAGGAGGUUUAUCUAAUUUUCGGCUGAUGCCUUCAAA: the “self-cleavage kobs at 640 uM GlcN6P” value in data set [1] is less than 1e-05 s⁻¹.
Turning to AUAAAAGCGCCAGAACUACAGAAAUGUAGUUGACGAGGAGGAGGUUUAUCGGAUUUUCGGCGGAUUCCUCCAAA, the “self-cleavage kobs at 640 uM GlcN6P” value in data set [1] amounted to 2.89e-05 ± 1.1e-05 s⁻¹. Moreover, the “self-cleavage kobs at 2500 uM GlcN6P” value in data set [2] came to 6.2e-05 ± 1.6e-05 s⁻¹. The “self-cleavage kobs at 10000 uM GlcN6P” value in data set [3] was found to be 0.00013 ± 1.5e-05 s⁻¹.
AUAAAAGCGCCAGAACUACAGAAAUGUAGUUGACGAGGAGGAGGUUUAUCGAUUUUUCGGCGGAUGCAUCCAAA: in data set [1], the “self-cleavage kobs at 640 uM GlcN6P” value is 6.67e-05 ± 8.3e-06 s⁻¹. In addition, the “self-cleavage kobs at 160 uM GlcN6P” value in data set [4] amounted to 3.62e-05 ± 1e-05 s⁻¹. For the same variant, the “self-cleavage kobs at 2500 uM GlcN6P” value in data set [2] was found to be 6.54e-05 ± 9.8e-06 s⁻¹.
The corresponding values for AUAAAAGCGCCAGAACUACAGAAAUGUAGUUGACGAGGAGGAGGUUUAUCCAAUUUUCGGCGGAGGCCUCCAAA are less than 1e-05 s⁻¹, less than 1e-05 s⁻¹ and less than 1e-05 s⁻¹.
Take AUAAAAGCGCCAGAACUACAGAAAUGUAGUUGACGAGGAGGAGGUUUAUCGUAUUUUCGGUGGAUGUCUCCAAA: in data set [1], the “self-cleavage kobs at 640 uM GlcN6P” value was less than 1e-05 s⁻¹. Besides, the “self-cleavage kobs at 160 uM GlcN6P” value in data set [4] is less than 1e-05 s⁻¹. Moreover, in data set [2], the “self-cleavage kobs at 2500 uM GlcN6P” value is less than 1e-05 s⁻¹.
As for AUAAAAGCGCCAGAACUACAGAAAUGUAGUUGACGAGGAGGAGGUUUAUCGUAUUUUCGGCGGAUGCCUUCAAA, the “self-cleavage kobs at 640 uM GlcN6P” value in data set [1] was found to be 0.000122 ± 2e-05 s⁻¹. For the same variant, the “self-cleavage kobs at 2500 uM GlcN6P” value in data set [2] turned out to be 0.000228 ± 3.4e-05 s⁻¹. Moreover, the “self-cleavage kobs at 10000 uM GlcN6P” value in data set [3] was 0.000483 ± 4.7e-05 s⁻¹.
As to AUAAAAGCGCCAGAACUACAGAAAUGUAGUUGACGAGGAGGAGGUUUAUCGGUUUUUCGGCGGAUGCCUCCAAA, the “self-cleavage kobs at 640 uM GlcN6P” value in data set [1] turned out to be 6.4e-05 ± 1.5e-05 s⁻¹. Moreover, in data set [2], the “self-cleavage kobs at 2500 uM GlcN6P” value is 0.000176 ± 3.4e-05 s⁻¹. For the same variant, the “self-cleavage kobs at 10000 uM GlcN6P” value in data set [3] was 0.000219 ± 2.3e-05 s⁻¹.
Turning to AUAAAAGCGCCAGAACUACAGAAAUGUAGUUGACGAGGAGGAGGUUUAUCGACUUUUCGGCGGAUCCCUCCAAA, the “self-cleavage kobs at 640 uM GlcN6P” value in data set [1] is 9.27e-05 ± 1.9e-05 s⁻¹. For the same variant, the “self-cleavage kobs at 2500 uM GlcN6P” value in data set [2] was 0.00034 ± 0.00011 s⁻¹. Moreover, in data set [3], the “self-cleavage kobs at 10000 uM GlcN6P” value is 0.000368 ± 6.5e-05 s⁻¹.
Take AUAAAAGCGCCAGAACUACAGAAAUGUAGUUGACGAGGAGGAGGUUUAUCGCAUCUUCUGCGGAUGCCUCCAAA: in data set [1], the “self-cleavage kobs at 640 uM GlcN6P” value is less than 1e-05 s⁻¹.
Regarding AUAAAAGCGCCAGAACUACAGAAAUGUAGUUGACGAGGAGGAGGUUUAUCGACCUUUCGUCGGAUGCCUCCAAA, the “self-cleavage kobs at 640 uM GlcN6P” value in data set [1] was less than 1e-05 s⁻¹. In addition, in data set [2], the “self-cleavage kobs at 2500 uM GlcN6P” value was less than 1e-05 s⁻¹.
On to AUAAAAGCGCCAGAACUACAGAAAUGUAGUUGACGAGGAGGAGGUUUAUCGGAUUGUCGGCGGAUGCCUCCAAA, for which the “self-cleavage kobs at 640 uM GlcN6P” value in data set [1] came out at 0.000309 ± 5.9e-05 s⁻¹. In data set [2], the “self-cleavage kobs at 2500 uM GlcN6P” value was determined as 0.000536 ± 0.00011 s⁻¹. Further, in data set [3], the “self-cleavage kobs at 10000 uM GlcN6P” value was found to be 0.0014 ± 0.00025 s⁻¹.
Regarding AUAAAAGCGCCAGAACUACAGAAAUGUAGUUGACGAGGAGGAGGUUUAUCGACUUUGCGGCGGAUGCCUCCAAA, the “self-cleavage kobs at 640 uM GlcN6P” value in data set [1] was found to be 9.98e-05 ± 1.6e-05 s⁻¹. In data set [2], the “self-cleavage kobs at 2500 uM GlcN6P” value was found to be 0.000143 ± 1.9e-05 s⁻¹. Besides, the “self-cleavage kobs at 10000 uM GlcN6P” value in data set [3] came to 0.000339 ± 4.6e-05 s⁻¹.
In the case of AUAAAAGCGCCAGAACUACAGAAAUGUAGUUGACGAGGAGGAGGUUUAUCGAUUUUUCGUCGGAUCCCUCCAAA, the “self-cleavage kobs at 640 uM GlcN6P” value in data set [1] is less than 1e-05 s⁻¹.
For AUAAAAGCGCCAGAACUACAGAAAUGUAGUUGACGAGGAGGAGGUUUAUCCAAUUUACGGCGGAUGCCUCCAAA, in data set [1], the “self-cleavage kobs at 640 uM GlcN6P” value is less than 1e-05 s⁻¹. Further, in data set [3], the “self-cleavage kobs at 10000 uM GlcN6P” value is less than 1e-05 s⁻¹.
With AUAAAAGCGCCAGAACUACAGAAAUGUAGUUGACGAGGAGGAGGUUUAUCCAAUUUCCGGCGGAUGCCUCCAAA, in data set [1], the “self-cleavage kobs at 640 uM GlcN6P” value was less than 1e-05 s⁻¹. Further, the “self-cleavage kobs at 160 uM GlcN6P” value in data set [4] is less than 1e-05 s⁻¹. For the same variant, the “self-cleavage kobs at 2500 uM GlcN6P” value in data set [2] is less than 1e-05 s⁻¹. Further, the “self-cleavage kobs at 10000 uM GlcN6P” value in data set [3] was less than 1e-05 s⁻¹.
With AUAAAAGCGCCAGAACUACAGAAAUGUAGUUGACGAGGAGGAGGUUUAUCGACUUUUCGGCGGAUGCUUCCAAA, in data set [1], the “self-cleavage kobs at 640 uM GlcN6P” value was 3.67e-05 ± 7.7e-06 s⁻¹. Besides, the “self-cleavage kobs at 2500 uM GlcN6P” value in data set [2] amounted to 8.77e-05 ± 1e-05 s⁻¹. For the same variant, in data set [3], the “self-cleavage kobs at 10000 uM GlcN6P” value came out at 8.67e-05 ± 5.3e-06 s⁻¹.
With AUAAAAGCGCCAGAACUACAGAAAUGUAGUUGACGAGGAGGAGGUUUAUCGUAUUUUCGGCGGGUUCCUCCAAA, the “self-cleavage kobs at 640 uM GlcN6P” value in data set [1] was less than 1e-05 s⁻¹. In addition, the “self-cleavage kobs at 160 uM GlcN6P” value in data set [4] is less than 1e-05 s⁻¹.
For AUAAAAGCGCCAGAACUACAGAAAUGUAGUUGACGAGGAGGAGGUUUAUCGAGUUUUCGGCGAAUGCCUCCAAA, the “self-cleavage kobs at 640 uM GlcN6P” value in data set [1] is less than 1e-05 s⁻¹. The “self-cleavage kobs at 10000 uM GlcN6P” value in data set [3] was less than 1e-05 s⁻¹.
Consider AUAAAAGCGCCAGAACUACAGAAAUGUAGUUGACGAGGAGGAGGUUUAUCCAAUUUUCCCCGGAUACCUCCAAA, for which the “self-cleavage kobs at 640 uM GlcN6P” value in data set [1] was less than 1e-05 s⁻¹. In data set [4], the “self-cleavage kobs at 160 uM GlcN6P” value was less than 1e-05 s⁻¹. Moreover, the “self-cleavage kobs at 2500 uM GlcN6P” value in data set [2] is less than 1e-05 s⁻¹.
As to AUAAAAGCGCCAGAACUACAGAAAUGUAGUUGACGAGGAGGAGGUUUAUCGAGUUUUUGGCGGAGGCCUCCAAA, the “self-cleavage kobs at 640 uM GlcN6P” value in data set [1] was less than 1e-05 s⁻¹.
On to AUAAAAGCGCCAGAACUACAGAAAUGUAGUUGACGAGGAGGAGGUUUAUCGCAUUUUUGGCGGAUGCCUCCAAA, for which the “self-cleavage kobs at 640 uM GlcN6P” value in data set [1] is less than 1e-05 s⁻¹. For the same variant, the “self-cleavage kobs at 160 uM GlcN6P” value in data set [4] was less than 1e-05 s⁻¹. The “self-cleavage kobs at 10000 uM GlcN6P” value in data set [3] was less than 1e-05 s⁻¹.
In the case of AUAAAAGCGCCAGAACUACAGAAAUGUAGUUGACGAGGAGGAGGUUUAUCCAAUUUUAGGCGGAUGCCUCCAAA, the “self-cleavage kobs at 640 uM GlcN6P” value in data set [1] is less than 1e-05 s⁻¹. In addition, the “self-cleavage kobs at 160 uM GlcN6P” value in data set [4] was less than 1e-05 s⁻¹. In addition, the “self-cleavage kobs at 2500 uM GlcN6P” value in data set [2] was less than 1e-05 s⁻¹.
Regarding AUAAAAGCGCCAGAACUACAGAAAUGUAGUUGACGAGGAGGAGGUUUAUCCAAAUUACGGCGGAUGCCUCCAAA, the “self-cleavage kobs at 640 uM GlcN6P” value in data set [1] was less than 1e-05 s⁻¹. Besides, the “self-cleavage kobs at 2500 uM GlcN6P” value in data set [2] is less than 1e-05 s⁻¹.
As to AUAAAAGCGCCAGAACUACAGAAAUGUAGUUGACGAGGAGGAGGUUUAUCGUAUUUUCGUCGGGUGCCUCUAAA, the “self-cleavage kobs at 640 uM GlcN6P” value in data set [1] is less than 1e-05 s⁻¹. Also, the “self-cleavage kobs at 160 uM GlcN6P” value in data set [4] is less than 1e-05 s⁻¹. Besides, in data set [2], the “self-cleavage kobs at 2500 uM GlcN6P” value was less than 1e-05 s⁻¹. Moreover, in data set [3], the “self-cleavage kobs at 10000 uM GlcN6P” value is less than 1e-05 s⁻¹.
As to AUAAAAGCGCCAGAACUACAGAAAUGUAGUUGACGAGGAGGAGGUUUAUCGAUUUUUCGGGGGAUGCCUCCAAA, the “self-cleavage kobs at 640 uM GlcN6P” value in data set [1] was less than 1e-05 s⁻¹. Also, the “self-cleavage kobs at 2500 uM GlcN6P” value in data set [2] was less than 1e-05 s⁻¹. In addition, in data set [3], the “self-cleavage kobs at 10000 uM GlcN6P” value is less than 1e-05 s⁻¹.
In the case of AUAAAAGCGCCAGAACUACAGAAAUGUAGUUGACGAGGAGGAGGUUUAUCGAGUUUUCGGCGGUUGCCGCCAAA, the “self-cleavage kobs at 640 uM GlcN6P” value in data set [1] was found to be 0.000772 ± 0.00022 s⁻¹. In data set [4], the “self-cleavage kobs at 160 uM GlcN6P” value came out at 0.000191 ± 6.9e-05 s⁻¹. In addition, the “self-cleavage kobs at 2500 uM GlcN6P” value in data set [2] came out at 0.000517 ± 0.00019 s⁻¹.
Consider AUAAAAGCGCCAGAACUACAGAAAUGUAGUUGACGAGGAGGAGGUUUAUCGGAUUUCCGGCGGAUGCCUCCAAA, for which the “self-cleavage kobs at 640 uM GlcN6P” value in data set [1] came to 9.94e-05 ± 1e-05 s⁻¹. Further, the “self-cleavage kobs at 160 uM GlcN6P” value in data set [4] worked out at 2.83e-05 ± 1.3e-05 s⁻¹. Besides, in data set [2], the “self-cleavage kobs at 2500 uM GlcN6P” value amounted to 0.000227 ± 3.1e-05 s⁻¹. Further, the “self-cleavage kobs at 10000 uM GlcN6P” value in data set [3] is 0.000314 ± 4.4e-05 s⁻¹.
For AUAAAAGCGCCAGAACUACAGAAAUGUAGUUGACGAGGAGGAGGUUUAUCGAUUUUUCGGCUGAUGCCUCCAAA, in data set [1], the “self-cleavage kobs at 640 uM GlcN6P” value is less than 1e-05 s⁻¹. In addition, in data set [2], the “self-cleavage kobs at 2500 uM GlcN6P” value is less than 1e-05 s⁻¹. The “self-cleavage kobs at 10000 uM GlcN6P” value in data set [3] was less than 1e-05 s⁻¹.
